Source: paper PMC4336329 (PLoS ONE, 2015)
The campaign covered roughly 310,000 compounds. About 2,200 (0.71%) showed an effect of 50% or more. Effects have a minus sign here. The list shows a part of the results.

Each molecule was assayed against human ether-à-go-go-related gene (hERG) potassium channel (human, UniProt Q12809) (assay: primary screen, population patch clamp on CHO cells stably expressing hERG).
human ether-à-go-go-related gene (hERG) potassium channel, sequence (Q12809 whole entry, looked up): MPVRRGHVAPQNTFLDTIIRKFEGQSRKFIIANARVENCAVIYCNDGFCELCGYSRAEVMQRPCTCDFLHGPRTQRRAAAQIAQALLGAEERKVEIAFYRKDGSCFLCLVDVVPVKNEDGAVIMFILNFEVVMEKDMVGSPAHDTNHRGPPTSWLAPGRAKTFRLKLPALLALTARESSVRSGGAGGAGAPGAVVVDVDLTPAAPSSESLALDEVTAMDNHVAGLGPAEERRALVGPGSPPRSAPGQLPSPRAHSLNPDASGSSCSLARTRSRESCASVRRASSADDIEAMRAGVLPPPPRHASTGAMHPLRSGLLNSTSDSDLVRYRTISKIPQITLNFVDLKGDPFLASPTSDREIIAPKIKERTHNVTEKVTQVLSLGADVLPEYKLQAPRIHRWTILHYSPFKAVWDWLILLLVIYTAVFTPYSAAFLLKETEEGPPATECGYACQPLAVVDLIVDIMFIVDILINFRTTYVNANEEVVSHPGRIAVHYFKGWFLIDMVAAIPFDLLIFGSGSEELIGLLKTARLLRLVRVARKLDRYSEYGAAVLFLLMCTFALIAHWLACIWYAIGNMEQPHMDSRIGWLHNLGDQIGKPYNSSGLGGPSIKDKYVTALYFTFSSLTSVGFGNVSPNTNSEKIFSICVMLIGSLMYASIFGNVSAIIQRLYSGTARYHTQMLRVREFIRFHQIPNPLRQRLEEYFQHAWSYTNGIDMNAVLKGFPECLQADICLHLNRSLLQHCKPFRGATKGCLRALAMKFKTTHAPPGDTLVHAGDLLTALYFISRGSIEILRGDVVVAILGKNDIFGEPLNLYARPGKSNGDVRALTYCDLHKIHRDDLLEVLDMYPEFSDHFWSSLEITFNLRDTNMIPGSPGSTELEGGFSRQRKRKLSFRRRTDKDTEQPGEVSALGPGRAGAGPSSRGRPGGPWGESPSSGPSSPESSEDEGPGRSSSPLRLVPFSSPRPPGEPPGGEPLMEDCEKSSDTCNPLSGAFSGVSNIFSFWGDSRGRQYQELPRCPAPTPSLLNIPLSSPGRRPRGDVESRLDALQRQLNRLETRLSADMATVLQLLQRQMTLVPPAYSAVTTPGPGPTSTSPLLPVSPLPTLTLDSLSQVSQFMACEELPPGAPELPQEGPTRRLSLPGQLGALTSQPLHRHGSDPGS

Point of comparison: COc1ccc(/C(O)=C2/C(=O)C(=O)N(CCN3CCOCC3)C2c2ccccn2)cc1OC (stereo not shown), “hERG current change (%, negative = inhibition) at 1uM” value 2.2%. Against it:
- CNC(=O)/C(C#N)=C1/SC(Cc2ccc(F)cc2)C(=O)N1c1ccccc1 (stereo not shown) — higher, 10.6%
- COc1ccc(NC(=O)N2CCN(c3nc(-c4cccc(OC)c4)cs3)CC2)cc1 — higher, 9.83%
- COc1ccc2[nH]c3c(=O)n4c(nc3c2c1)SCC4 — higher, 9.77%
- Cc1ccc(C(=O)NNC(=O)Cn2nnc3ccccc32)cc1 — higher, 13.6%
- COc1ccc(/C=C/C(=O)c2cccc(-n3cnnn3)c2)cc1O — higher, 12.5%
- COC(=O)C1=CN(C(C)C)C=C(C(=O)OC)C1c1cc(Br)c(OC)c(OC)c1 — higher, 5.14%
- Clc1cc(Cl)c2nc(N3CCCCC3)sc2c1 — higher, 7.59%
- CCn1c(SCC(=O)c2ccc(F)cc2)nnc1-c1ccoc1C — higher, 8.06%
- Clc1ccccc1Cn1nnc(-c2cccs2)n1 — higher, 11.8%
- CC1=CC(C)(C)NC(=S)N1NC(=O)c1ccccc1Cl — higher, 2.9%
- Cc1ccc2cccc(OCC(=O)c3cc(C)n(Cc4ccco4)c3C)c2n1 — higher, 14.7%
- c1ccc(COC2CCCN(Cc3nc(Cc4ccccc4)no3)C2)cc1 (stereo not shown) — higher, 6.04%
- CCc1nc(SCC(=O)Nc2cc(OC)ccc2OC)c2c(C)c(C)sc2n1 — higher, 6%
- COc1nc(Nc2ccc(C(C)C)cc2)nc(OC)n1 — higher, 4.06%
- CCOC(=O)N1CCC(NC(=O)Cn2cc3c(n2)CCCCC3)CC1 — higher, 12.8%
- C/C(=N\NC(N)=S)c1ccncc1 — higher, 9.74%
- Cc1ccsc1/C=N/NC(=O)CC(=O)NCC(C)C — higher, 8.47%
- CCC(C)c1c(O)nc(SCC(=O)N2CCCCCC2)[nH]c1=O (stereo not shown) — higher, 17.1%
- CC(=O)O[C@H](COc1c2ccoc2cc2oc(=O)ccc12)C(C)(C)O.O — higher, 2.66%
- O=C(/C=C/c1ccccc1)NC1CCS(=O)(=O)C1 (stereo not shown) — higher, 16.8%
- CC(C)CCN1CCN(CCCn2cccn2)CC1CCO (stereo not shown) — higher, 4%
- CCC(CC)C(=O)Nc1nnc(CCc2ccccc2)s1 — higher, 16.2%
- Cc1nc2ccccc2c(=O)n1-c1ccc(Cl)cc1[N+](=O)[O-] — higher, 13.5%
- COc1ccc(N2CCN(CCCNC(=O)C(=O)c3c(C)[nH]c4ccccc34)CC2)cc1 — lower, -2.09%
- COc1cccc(OC)c1C(=O)Nc1cccc(-c2ccc3nncn3n2)c1 — higher, 11.8%
- O=C(NCc1cccnc1)/C(=C/c1ccc(Cl)cc1)NC(=O)c1ccccc1 — lower, -60.8%
- OC/C(Br)=C(\Br)CO — higher, 9.04%
- COC(=O)C1=C(N)Oc2cc(C)[nH]c(=O)c2C1c1ccccc1OC (stereo not shown) — higher, 9.49%
- CNc1nnc(Sc2ncccc2[N+](=O)[O-])s1 — higher, 5.03%
- COc1ccc2nc3oc(C(=O)N4CCN(c5cccc(C(F)(F)F)c5)CC4)cc3cc2c1 — higher, 11.4%
- CC(C(=O)Nc1ccc(C(N)=O)cc1)N1C(=O)c2ccccc2S1(=O)=O (stereo not shown) — higher, 6.21%
- COc1ccc(/C=N/NC(=O)c2nc(-c3ccccc3)cc(-c3ccccc3)n2)cc1 — higher, 11.8%
- O=C(CCNC(=O)c1ccc(Br)cc1)NCCCc1ccccc1 — higher, 8.93%
- CCCN(C(=O)CSCC(=O)Nc1cccc(C)c1)c1c(N)n(Cc2ccccc2)c(=O)[nH]c1=O — higher, 5.16%
- Nc1ccc(Sc2ccc([N+](=O)[O-])cc2)cc1 — higher, 4.81%
- CC1=C(C(=O)Nc2ccccn2)C(c2ccc(N(C)C)cc2)n2ncnc2N1 (stereo not shown) — lower, -39.1%
- CCOC(=O)c1cnc(-n2nc(C)cc2C)nc1N1CC(C)OC(C)C1 (stereo not shown) — lower, 0.965%
- CCNC(=O)COC(=O)c1ccc(-n2nc(C)cc2C)cc1 — lower, -1.37%
- Cc1ccc2nc(NS(C)(=O)=O)sc2c1 — higher, 16.1%
- Cc1ccc(C(=O)NC2CCCC(C)C2C)cc1S(=O)(=O)N1CCCCC1 (stereo not shown) — lower, -1.19%
- O=C(Nc1ccccc1C(=O)O)c1cccc(S(=O)(=O)Nc2ccc(Br)cc2)c1 — higher, 15.2%
- O=C(C1CCCO1)N1CCc2ccccc21 (stereo not shown) — higher, 22.1%
- CCOC(=O)c1c(C)[nH]c(C)c1S(=O)(=O)NCCc1ccco1 — higher, 6.29%
- Cc1cc(C)n(-c2ccc(C(=O)OCC(=O)c3ccc(Br)s3)cc2)n1 — higher, 7.91%
- CC1=NN(c2nc(C)cc(C)n2)C(=O)C1CCC(C)C (stereo not shown) — higher, 3.35%
